From PubChem BioAssay AID1508623 (National Center for Advancing Translational Sciences (NCATS), 2021)
The campaign covered roughly 48,000 compounds. About 450 (0.94%) were called active. Roughly 19% stayed inconclusive and do not appear here. The call rests on the fitted dose curve; in most records, active means well fitted inhibition curve with a large enough effect; inconclusive means small, poorly fitted or top-dose-only effect; inactive means no such curve, though single readings can be large or run the other way. Some of the results follow.

Experiment: Primary qHTS for Identification of Small Molecule Inhibitors of Huntingtin Promoter Activity; further: nearly all actives have a fitted effect of over 50% in size
Conditions: HEK293 HTT promoter firefly luciferase reporter (activity 0% = vehicle and -100% = no light), 24 h; series mostly up to 57.5 µM; activity change, negative = inhibition: at the top concentration
Outline: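 HEK293 cells carrying firefly luciferase reporters were seeded at 2,500 per well in Opti-MEM and cultured for 24 h. They were then treated with compounds at up to 57.5 uM final for 24 h at 37 degrees C before Dual-Glo luminescence readout.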

Activity change, negative = inhibition, inactive:
CC(=O)c1ccccc1NS(=O)(=O)c1cc2c(cc1C)NC(=O)CO2 15.4%
Fc1cccc(Cl)c1CNc1n[nH]c(-c2ccco2)n1 47%
Cc1ccc(Cl)cc1N1CCN(C(=O)c2cccn2-c2nnc(N3CCCCC3)s2)CC1 -53.2%
COc1cc(Cl)ccc1OC(=O)c1cn(-c2ccccc2OC)c(=O)c2ccccc12 -6.32%
CC1C(=O)Nc2ccc(S(=O)(=O)Nc3ccccc3Br)cc2NC1=O (stereo not drawn) -7.72%
CC(C)CCNC(=O)c1ccc(Cn2c(SCC(=O)NC(C)C)nc3ccccc3c2=O)cc1 -5.48%
Cc1cc(NC(=O)c2ccc(-c3ccc(Br)cc3)o2)cc(-c2nc3ncccc3o2)c1O -8.98%
Cc1c(-c2ccccc2)c(=O)oc2c(CN3CCN(C)CC3)c(O)ccc12 -12.7%
Cc1ccc2nc(Cl)c3cc(C(=O)NCCCN4CCC(C)CC4)sc3c2c1 2.35%
COc1ccc2c(c1)c1c(c(=O)n(-c3ccccc3)c(=O)n1CC(=O)Nc1ccc(F)cc1)n2C -10.4%
COc1ccc(N2CC(NC(=O)c3ccc4c(c3)OCO4)CC2=O)cc1OC (stereo not drawn) -11.8%
CCCCN(C)CC(O)Cn1cc(/C=C/C(=O)c2ccc(OC)c(OC)c2)c2ccccc21 (stereo not drawn) -4.82%
CCCn1ccc2c(OCC(=O)NCc3ccc(F)cc3)cccc2c1=O -10.7%
COc1ccc(CNC(=O)Cn2nnc(-c3ccccc3F)n2)cc1 -5.25%
CCc1cc2c(cc3c(=O)n(CC(=O)N4CCCCC4)nc(CC)n32)s1 -14%
CC(C)(C)C(=O)NCCCC(=O)O 11.7%
COc1ccc(Cl)cc1C(=O)Nc1ccc2oc(-c3ccc(C(C)(C)C)cc3)nc2c1 -3.18%
CCCSC1=NC2(CCN(C(=O)NC3CCCCC3)CC2)N=C1c1ccccc1 -18.4%
NC12CC3CC(CC(C3)C1)C2
CC(C)c1nnc(NC(=O)c2nc(SCc3ccc(F)cc3)ncc2Cl)s1 -20.6%
CCCSc1ncc(Cl)c(C(=O)Nc2sc3c(c2C(=O)NCC)CCCC3)n1 -12%
CSc1ncc(Cl)c(C(=O)Nc2nc3ccc(F)cc3s2)n1 -7.22%
CCN1CCN(C(=O)c2ccc3c(c2)N(Cc2ccccc2)C(=O)c2ccccc2S3=O)CC1 (stereo not drawn) -14.1%
COc1ccc(OC)c(-c2nc(C(N)=O)c3c(n2)n(-c2ccc4c(c2)OCO4)c(=O)n3C)c1 -13.2%
Cc1nn(CCCC(=O)NCc2cccc(F)c2)c(=O)c2nn(-c3ccccc3)c(C)c12 -10.8%
Cc1ccc(NC(=O)CN(C)S(=O)(=O)c2ccc3c(c2)CCC(=O)N3)c(C)c1 -10.3%
Cc1ccc(NC(=O)Cn2nc(-c3ccc(F)cc3)c3cnc4ccc(C)cc4c32)cc1 8.98%
CCCN1CCN(c2ncc3c(n2)CCN(Cc2ccc(OC)c(OC)c2OC)C3)CC1 -15.9%
